Reference: article PMC4326527
Numbering of substitutions follows the chain as printed. No constants are given. Whether binding was seen depends on the method and setting. Some entries that bind do so weakly or less than the wild type. Tags and fused reporters may be left off the sequences shown.

Sequences of proteins named here, by UniProt entry; tags and fusion partners are left off.
UniProt Q8TAF3: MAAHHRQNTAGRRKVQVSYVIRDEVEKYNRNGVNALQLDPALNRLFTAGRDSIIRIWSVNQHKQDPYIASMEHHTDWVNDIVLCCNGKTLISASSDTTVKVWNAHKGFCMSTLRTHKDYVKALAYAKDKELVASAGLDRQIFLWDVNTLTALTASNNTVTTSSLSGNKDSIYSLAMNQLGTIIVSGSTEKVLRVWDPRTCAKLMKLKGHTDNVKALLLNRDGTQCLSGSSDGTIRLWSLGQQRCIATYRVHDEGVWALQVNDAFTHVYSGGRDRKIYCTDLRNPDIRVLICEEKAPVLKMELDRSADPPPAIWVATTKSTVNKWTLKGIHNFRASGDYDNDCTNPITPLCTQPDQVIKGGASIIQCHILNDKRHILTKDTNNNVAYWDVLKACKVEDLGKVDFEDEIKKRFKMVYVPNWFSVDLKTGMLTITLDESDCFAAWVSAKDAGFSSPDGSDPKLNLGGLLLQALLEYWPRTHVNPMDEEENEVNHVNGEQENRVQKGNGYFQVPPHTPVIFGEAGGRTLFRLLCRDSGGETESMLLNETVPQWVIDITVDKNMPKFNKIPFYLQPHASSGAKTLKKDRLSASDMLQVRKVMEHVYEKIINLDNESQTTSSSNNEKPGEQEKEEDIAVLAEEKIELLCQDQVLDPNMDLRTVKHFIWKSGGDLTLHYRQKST

Experiments:
GFP-USP1^S313D (human) = target: T1, GFP-USP1^S313D (human) (UniProt O94782); assay: nuclear relocation assay; 293T cells co-transfected with UAF1-mRFP and a GFP- or YFP-tagged nuclear DUB variant; nuclear accumulation of UAF1-mRFP seen by confocal microscopy in fixed cells (live cells too for USP1 WT, S313A, S313D; also after USP1 siRNA)
T1 sequence: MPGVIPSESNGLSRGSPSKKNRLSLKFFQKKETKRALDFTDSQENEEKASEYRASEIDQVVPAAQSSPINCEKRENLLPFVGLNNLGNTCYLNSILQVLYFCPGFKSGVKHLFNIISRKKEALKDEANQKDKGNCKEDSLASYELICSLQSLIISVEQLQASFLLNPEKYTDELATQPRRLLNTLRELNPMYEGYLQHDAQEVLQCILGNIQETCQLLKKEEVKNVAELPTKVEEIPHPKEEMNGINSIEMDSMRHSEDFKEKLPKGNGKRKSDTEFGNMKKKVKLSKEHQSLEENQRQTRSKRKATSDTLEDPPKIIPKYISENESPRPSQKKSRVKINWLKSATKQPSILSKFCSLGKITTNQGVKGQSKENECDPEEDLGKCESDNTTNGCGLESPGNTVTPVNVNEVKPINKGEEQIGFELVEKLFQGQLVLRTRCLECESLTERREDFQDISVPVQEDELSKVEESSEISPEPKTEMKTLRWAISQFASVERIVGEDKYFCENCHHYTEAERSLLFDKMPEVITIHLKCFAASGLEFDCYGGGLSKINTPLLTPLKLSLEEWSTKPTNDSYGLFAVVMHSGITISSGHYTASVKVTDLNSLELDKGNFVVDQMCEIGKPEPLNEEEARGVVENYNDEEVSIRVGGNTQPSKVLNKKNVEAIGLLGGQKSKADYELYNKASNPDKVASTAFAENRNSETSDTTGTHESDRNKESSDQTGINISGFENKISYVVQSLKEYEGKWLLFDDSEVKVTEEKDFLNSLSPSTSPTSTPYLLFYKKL

GFP-USP1^G667A (human) = target: T2, GFP-USP1^G667A (human) (UniProt O94782); assay: as above
T2 sequence: T1 sequence with D313S, G667A

With UAF1-mRFP (from UniProt Q8TAF3 1-677) the binding (GFP-USP1^S313D (human)) was “binds” and the binding (GFP-USP1^G667A (human)) was “binds”.
